The supplement of paper PMC4604168 (melanoma cell lines)
The other results are listed elsewhere or left out. Repeats are few or missing, and single values can be far off.

Each compound was assayed on COLO829 (assay: cell count relative to DMSO control; melanoma cells; higher = more viable cells). Details: library dose: low library concentration; 72 h.
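Note: cell number obtained by counting DAPI-stained nuclei in high-throughput microscope images with image analysis software, screen run in 1,536-well plates.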

Row | SMILES | cell count
1 | NC1(c2ccc(-c3nc4ccn5c(=O)[nH]nc5c4cc3-c3ccccc3)cc2)CCC1 + COc1ccc(-c2ccc3c(N4CCOCC4)nc(N4C[C@@H](C)O[C@@H](C)C4)nc3n2)cc1CO [KU0063794] (first compound 0.4 µM, partner dose 0.02 µM) | 115%
2 | CN(c1ncccc1CNc1nc(Nc2ccc3c(c2)CC(=O)N3)ncc1C(F)(F)F)S(C)(=O)=O + O=C1NC(=O)/C(=C/c2ccc(-c3ccc(F)cc3O)o2)S1 [AS252424] (first compound 0.08 µM, partner dose 1 µM) | 58.2%
3 | CS(=O)(=O)c1ccc(C(=O)Nc2ccc(Cl)c(-c3ccccn3)c2)c(Cl)c1 [vismodegib] + COc1ccc(COc2ccc(Cc3cnc(N)nc3N)cc2OC)cc1 [GW2580] (first compound 1 µM, partner dose 1 µM) | 112%
4 | CS(=O)(=O)c1ccc(C(=O)Nc2ccc(Cl)c(-c3ccccn3)c2)c(Cl)c1 [vismodegib] + COc1ccc2c(c1)CCC1C2CCC2(C)C(NCCCCCCN3C(=O)C=CC3=O)CCC12 [U73122] (first compound 1 µM, partner dose 0.4 µM) | 95.7%
5 | NC1(c2ccc(-c3nc4ccn5c(=O)[nH]nc5c4cc3-c3ccccc3)cc2)CCC1 + Cn1cc(/C=C2\C(=O)Nc3cccnc32)c2ccccc21 [GW441756] (first compound 0.4 µM, partner dose 0.4 µM) | 114%
6 | C=C(c1ccc(C(=O)O)cc1)c1cc2c(cc1C)C(C)(C)CCC2(C)C [Bexarotene] + O=C(Nc1ccccc1)c1cc([N+](=O)[O-])ccc1Cl [GW9662] (first compound 2 µM, partner dose 2 µM) | 84.4%
7 | NC1(c2ccc(-c3nc4ccn5c(=O)[nH]nc5c4cc3-c3ccccc3)cc2)CCC1 + COC(=O)c1sccc1S(=O)(=O)Nc1ccc(Nc2ccccc2)cc1OC [GSK0660] (first compound 0.4 µM, partner dose 1 µM) | 89%
8 | CCCS(=O)(=O)Nc1ccc(F)c(C(=O)c2c[nH]c3ncc(Cl)cc23)c1F + O=C(O)C(=O)Nc1sc2c(c1C(=O)O)CCNC2 [TCS401] (first compound 0.08 µM, partner dose 1.66667 µM) | 120%
9 | CS(=O)(=O)c1ccc(C(=O)Nc2ccc(Cl)c(-c3ccccn3)c2)c(Cl)c1 [vismodegib] + O=C(O)C(=O)Nc1sc2c(c1C(=O)O)CCNC2 [TCS401] (first compound 1 µM, partner dose 1.66667 µM) | 109%
10 | C=C(c1ccc(C(=O)O)cc1)c1cc2c(cc1C)C(C)(C)CCC2(C)C [Bexarotene] + N#Cc1c(O)c2c(-c3ccc(-c4ccccc4O)cc3)csc2[nH]c1=O [A769662] (first compound 2 µM, partner dose 2 µM) | 103%
11 | C=C(c1ccc(C(=O)O)cc1)c1cc2c(cc1C)C(C)(C)CCC2(C)C [Bexarotene] + COc1ccc(-c2ccc3c(N4CCOCC4)nc(N4C[C@@H](C)O[C@@H](C)C4)nc3n2)cc1CO [KU0063794] (first compound 2 µM, partner dose 0.02 µM) | 68%
12 | CCCS(=O)(=O)Nc1ccc(F)c(C(=O)c2c[nH]c3ncc(Cl)cc23)c1F + COc1ccc(COc2ccc(Cc3cnc(N)nc3N)cc2OC)cc1 [GW2580] (first compound 0.08 µM, partner dose 1 µM) | 112%

What follows are compounds tested on G361 in the same assay as above. Details: library dose: low library concentration; 72 h.

Row | SMILES | cell count
13 | C=C(c1ccc(C(=O)O)cc1)c1cc2c(cc1C)C(C)(C)CCC2(C)C [Bexarotene] + Cn1cc(/C=C2\C(=O)Nc3cccnc32)c2ccccc21 [GW441756] (first compound 2 µM, partner dose 0.4 µM) | 87.5%
14 | NC1(c2ccc(-c3nc4ccn5c(=O)[nH]nc5c4cc3-c3ccccc3)cc2)CCC1 + CC(C)CCN1c2nc(Nc3cc(F)c(O)c(F)c3)ncc2N(C)C(=O)C1C [BID1870] (first compound 0.4 µM, partner dose 0.2 µM) | 98.4%
15 | CS(=O)(=O)c1ccc(C(=O)Nc2ccc(Cl)c(-c3ccccn3)c2)c(Cl)c1 [vismodegib] + N#Cc1c(O)c2c(-c3ccc(-c4ccccc4O)cc3)csc2[nH]c1=O [A769662] (first compound 1 µM, partner dose 2 µM) | 99.3%
16 | CN(c1ncccc1CNc1nc(Nc2ccc3c(c2)CC(=O)N3)ncc1C(F)(F)F)S(C)(=O)=O + COC(=O)c1sccc1S(=O)(=O)Nc1ccc(Nc2ccccc2)cc1OC [GSK0660] (first compound 0.08 µM, partner dose 1 µM) | 100%
17 | CCCS(=O)(=O)Nc1ccc(F)c(C(=O)c2c[nH]c3ncc(Cl)cc23)c1F + COC(=O)c1sccc1S(=O)(=O)Nc1ccc(Nc2ccccc2)cc1OC [GSK0660] (first compound 0.08 µM, partner dose 1 µM) | 82.1%
18 | NC1(c2ccc(-c3nc4ccn5c(=O)[nH]nc5c4cc3-c3ccccc3)cc2)CCC1 + COc1cc(N2CCC(N3CCN(C)CC3)CC2)ccc1Nc1ncc(Cl)c(Nc2ccccc2S(=O)(=O)C(C)C)n1 [NVP-TAE684] (first compound 0.4 µM, partner dose 0.08 µM) | 97.8%
19 | CS(=O)(=O)c1ccc(C(=O)Nc2ccc(Cl)c(-c3ccccn3)c2)c(Cl)c1 [vismodegib] + CCN(CC)CCCCNc1ncc2cc(-c3cc(OC)cc(OC)c3)c(NC(=O)NC(C)(C)C)nc2n1 [PD173074] (first compound 1 µM, partner dose 0.1 µM) | 101%
20 | CCCS(=O)(=O)Nc1ccc(F)c(C(=O)c2c[nH]c3ncc(Cl)cc23)c1F + N#Cc1c(O)c2c(-c3ccc(-c4ccccc4O)cc3)csc2[nH]c1=O [A769662] (first compound 0.08 µM, partner dose 2 µM) | 86.3%
21 | CCCS(=O)(=O)Nc1ccc(F)c(C(=O)c2c[nH]c3ncc(Cl)cc23)c1F + COc1ccc2c(c1)CCC1C2CCC2(C)C(NCCCCCCN3C(=O)C=CC3=O)CCC12 [U73122] (first compound 0.08 µM, partner dose 0.4 µM) | 90.2%
22 | CN(c1ncccc1CNc1nc(Nc2ccc3c(c2)CC(=O)N3)ncc1C(F)(F)F)S(C)(=O)=O + O=S(=O)(c1ccccc1)N(CC(F)(F)F)c1ccc(C(O)(C(F)(F)F)C(F)(F)F)cc1 [T0901317] (first compound 0.08 µM, partner dose 1.4 µM) | 78.9%
23 | CCCS(=O)(=O)Nc1ccc(F)c(C(=O)c2c[nH]c3ncc(Cl)cc23)c1F + O=C1NC(=O)/C(=C/c2ccc(-c3ccc(F)cc3O)o2)S1 [AS252424] (first compound 0.08 µM, partner dose 1 µM) | 76.2%
24 | NC1(c2ccc(-c3nc4ccn5c(=O)[nH]nc5c4cc3-c3ccccc3)cc2)CCC1 + COc1cc2ncnc(Nc3ccc(Oc4ccccc4)cc3)c2cc1OC [SrcI1] (first compound 0.4 µM, partner dose 2 µM) | 90.3%
25 | C=C(c1ccc(C(=O)O)cc1)c1cc2c(cc1C)C(C)(C)CCC2(C)C [Bexarotene] + COc1cc2ncnc(Nc3ccc(Oc4ccccc4)cc3)c2cc1OC [SrcI1] (first compound 2 µM, partner dose 2 µM) | 95.2%
26 | C=C(c1ccc(C(=O)O)cc1)c1cc2c(cc1C)C(C)(C)CCC2(C)C [Bexarotene] + O=S(=O)(c1ccccc1)N(CC(F)(F)F)c1ccc(C(O)(C(F)(F)F)C(F)(F)F)cc1 [T0901317] (first compound 2 µM, partner dose 1.4 µM) | 74.7%
27 | C=C(c1ccc(C(=O)O)cc1)c1cc2c(cc1C)C(C)(C)CCC2(C)C [Bexarotene] + Oc1cc(-c2nc(-c3ccccc3)[nH]c2-c2ccncc2)ccc1Cl [L779450] (first compound 2 µM, partner dose 0.2 µM) | 94.7%
28 | CN(c1ncccc1CNc1nc(Nc2ccc3c(c2)CC(=O)N3)ncc1C(F)(F)F)S(C)(=O)=O + COc1ccc2c(c1)CCC1C2CCC2(C)C(NCCCCCCN3C(=O)C=CC3=O)CCC12 [U73122] (first compound 0.08 µM, partner dose 0.4 µM) | 100%
29 | CCCS(=O)(=O)Nc1ccc(F)c(C(=O)c2c[nH]c3ncc(Cl)cc23)c1F + CCCCCCCCCCCC1=C(O)C(=O)C=C(O)C1=O [Embelin] (first compound 0.08 µM, partner dose 1.2 µM) | 93%
30 | CN(c1ncccc1CNc1nc(Nc2ccc3c(c2)CC(=O)N3)ncc1C(F)(F)F)S(C)(=O)=O + Oc1nc(-c2ccc(C(F)(F)F)cc2)nc2c1CSCC2 [XAV939] (first compound 0.08 µM, partner dose 2 µM) | 90.1%
31 | NC1(c2ccc(-c3nc4ccn5c(=O)[nH]nc5c4cc3-c3ccccc3)cc2)CCC1 + COc1ccc2c(c1)CCC1C2CCC2(C)C(NCCCCCCN3C(=O)C=CC3=O)CCC12 [U73122] (first compound 0.4 µM, partner dose 0.4 µM) | 86.4%
32 | C=C(c1ccc(C(=O)O)cc1)c1cc2c(cc1C)C(C)(C)CCC2(C)C [Bexarotene] + O=C1NC(=O)/C(=C/c2ccc(-c3ccc(F)cc3O)o2)S1 [AS252424] (first compound 2 µM, partner dose 1 µM) | 91.5%
33 | CN(c1ncccc1CNc1nc(Nc2ccc3c(c2)CC(=O)N3)ncc1C(F)(F)F)S(C)(=O)=O + COc1cc(N2CCC(N3CCN(C)CC3)CC2)ccc1Nc1ncc(Cl)c(Nc2ccccc2S(=O)(=O)C(C)C)n1 [NVP-TAE684] (first compound 0.08 µM, partner dose 0.08 µM) | 95.7%
